Our source for the binding values is PMC4999519.

Experiment [1] concerns the target T1, Peroxisome proliferator-activated receptor gamma coactivator 1-alpha (endogenous) (mouse (endogenous in OP9, C2C12, mouse BAT, brown adipocyte line)) (UniProt O70343).
T1 sequence: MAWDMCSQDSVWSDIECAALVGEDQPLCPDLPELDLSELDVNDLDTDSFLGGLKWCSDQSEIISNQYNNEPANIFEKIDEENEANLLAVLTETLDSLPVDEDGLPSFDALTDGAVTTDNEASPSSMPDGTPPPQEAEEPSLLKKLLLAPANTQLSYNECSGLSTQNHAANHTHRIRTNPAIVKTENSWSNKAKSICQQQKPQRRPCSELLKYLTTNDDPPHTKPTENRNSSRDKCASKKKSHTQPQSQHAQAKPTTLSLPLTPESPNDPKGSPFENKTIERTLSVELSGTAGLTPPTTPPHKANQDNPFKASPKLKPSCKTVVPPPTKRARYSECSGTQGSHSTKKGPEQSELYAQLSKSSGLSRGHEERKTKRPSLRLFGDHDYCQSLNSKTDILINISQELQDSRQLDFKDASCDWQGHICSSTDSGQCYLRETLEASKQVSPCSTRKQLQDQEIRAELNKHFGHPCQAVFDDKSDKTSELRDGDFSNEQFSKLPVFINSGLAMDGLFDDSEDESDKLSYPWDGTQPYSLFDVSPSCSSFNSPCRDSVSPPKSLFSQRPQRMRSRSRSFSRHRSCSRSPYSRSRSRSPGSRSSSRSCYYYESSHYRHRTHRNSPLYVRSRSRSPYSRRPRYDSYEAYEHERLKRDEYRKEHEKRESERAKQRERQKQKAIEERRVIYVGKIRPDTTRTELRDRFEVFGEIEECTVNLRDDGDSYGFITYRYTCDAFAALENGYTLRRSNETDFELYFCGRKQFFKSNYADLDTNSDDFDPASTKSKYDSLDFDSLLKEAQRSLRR
Kind of experiment: co-IP; whole-cell lysate of brown adipocytes treated with vehicle or Iso/IBMX for 2 h; IP of Perilipin 5 or of PGC-1α; controls IgG and siRNA for PGC-1α and/or Perilipin 5; also with orlistat or siATGL; lysis in HEPES pH 7.4, 150 mM NaCl, 2 mM EDTA, 1% Triton X-100, 0.5% cholate; 4 °C.

Experiment [2] deals with T1, Peroxisome proliferator-activated receptor gamma coactivator 1-alpha (endogenous) (mouse (endogenous in OP9, C2C12, mouse BAT, brown adipocyte line)). Kind of experiment: proximity ligation; DuoLink in situ PLA in C2C12 differentiating myoblasts treated with vehicle or Iso/IBMX for 2 h, fixed and permeabilised; endogenous proteins.
The target is the same in experiment [3]. The experiment can be described thus: co-IP; nuclear extracts of C2C12 myotubes treated with vehicle or Iso/IBMX for 2 h; IP of PGC-1α or of Perilipin 5; IP buffer 20 mM HEPES pH 7.9, 0.15 M NaCl, 1 mM EDTA, 1 mM EGTA, 1 mM DTT; 4 °C.
For experiment [4], the target named is T2, flag-PGC-1α (UniProt O70343).
T2 sequence: T1 sequence
The experiment can be described thus: co-IP; whole-cell extract of C2C12 myoblasts transfected with myc-Perilipin 5 and flag-PGC-1α and treated with Iso/IBMX for 2 h; flag and myc antibodies; non-transfected cells as control.

Results are given in words; binding and its absence hold for the method and conditions named. Binding seen in cells or lysates may run through a third protein. Some entries that bind do so weakly or less than the wild type. For some of these results: Sequences can lack the tags named with a protein.

B1: Perilipin 5 (endogenous) (protein, UniProt Q8BVZ1 1-463)
chain: MDQRGEDTTLAPHSRMSGDQTAQDPGSSLGELDQQNVVNRVVALPLVKATCTAVSSAYNSAKDRHPLLGSACRLAEHCVCSVTTCALDHAQPLLEHLQPQLATVNDLACRGLDKLEEKLPFLQQPSDMVVTSAKDTVAKSVTGMVDLAQRGRRWSGELRRSMSQAMDMVLGKSEKLVDRFLPMTEAELAVLAAEAEGPEVGTVEEQRQQQGYFVRLGSLSARLRHLAYEHSLGKLRQSKHRTQEMLAQLQETLELIQHMQRGASPSPTFHPPKTQELWGSWSPCLENGRSHSEVELETLALSRSLTLELQNAVDALAGCVRGLPPSAQAKVAEVQRSVDALQATFADAHCLGDVAPTALAEGRGSVARAHACVDEFLDLVLRAMPLPWLVGPFAPILVEQSEPLINLATCVDEVVGDPDPRWAHMDWPAQKRAWEAESADPGGQEAEPPRGQGKHTMMPELDF
For B1, the binding entry in experiment [1], in experiment [2] and in experiment [3] was “binds” throughout.

B2: myc-Perilipin 5 (transfected in C2C12 myoblasts) (protein, UniProt Q8BVZ1 1-463)
chain: B1 chain
On to B2, for which the binding entry in experiment [4] is listed as “binds”.
